Data reported in PubChem BioAssay AID1159614 (National Center for Advancing Translational Sciences (NCATS), 2016).
The campaign covered roughly 45,000 compounds. About 65 (0.1%) were called active. The call rests on the fitted dose curve; in most records, active means well fitted activation curve with a large enough effect; inconclusive means small, poorly fitted or top-dose-only effect; inactive means no such curve, though single readings can be large or run the other way. This is one part of the list.

target: Galactocerebrosidase (Homo sapiens) (UniProt P54803); assay: A Novel Cell-Based Assay to Identify Small Molecules for B -Galactocerebrosidase; details: 145M-Twi-hGALC-G270D cells (Twitcher mouse brain line with human GALC G270D), HMU-beta-Gal fluorescence, 48 h; series mostly up to 57.5 µM; activation: at the top concentration; further: 0% is about no effect; nearly all actives have a fitted effect of over 65% in size
Sequence of UniProt P54803 (P54803 whole entry, looked up): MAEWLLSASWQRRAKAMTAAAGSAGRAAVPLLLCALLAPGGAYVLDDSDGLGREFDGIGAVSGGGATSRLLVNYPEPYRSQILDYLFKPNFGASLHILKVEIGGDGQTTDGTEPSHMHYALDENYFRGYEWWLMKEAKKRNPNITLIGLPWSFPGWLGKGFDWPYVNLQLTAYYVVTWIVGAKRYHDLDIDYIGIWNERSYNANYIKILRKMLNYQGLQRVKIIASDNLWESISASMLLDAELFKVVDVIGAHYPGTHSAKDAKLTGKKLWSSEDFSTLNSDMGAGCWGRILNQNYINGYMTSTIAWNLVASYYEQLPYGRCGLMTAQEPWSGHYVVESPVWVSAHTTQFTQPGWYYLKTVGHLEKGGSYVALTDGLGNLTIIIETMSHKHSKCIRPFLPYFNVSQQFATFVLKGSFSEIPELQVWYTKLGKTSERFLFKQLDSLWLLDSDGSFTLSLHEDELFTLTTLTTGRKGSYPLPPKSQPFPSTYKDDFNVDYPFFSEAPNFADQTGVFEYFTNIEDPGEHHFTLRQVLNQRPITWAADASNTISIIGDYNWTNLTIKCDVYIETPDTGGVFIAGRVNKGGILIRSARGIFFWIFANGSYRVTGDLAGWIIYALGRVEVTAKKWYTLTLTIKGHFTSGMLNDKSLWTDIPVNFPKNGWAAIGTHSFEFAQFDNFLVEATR
In short: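 Fluorescence readout: HMU-β-gal cleavage by mutant GALC (0.1 mM final, citrate/phosphate pH 5.2 with 1 mg/mL taurocholate), stopped with carbonate/bicarbonate plus Triton X-100. Cells: murine Twitcher 145M-Twi expressing human G270D GALC; qHTS for activators.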

activation, inactive:
Cc1ccc(NC(=O)CN2CCN(S(=O)(=O)c3ccc(C(C)C)cc3)CC2)cc1F -22.5%
Cc1ccc(-n2cc(C(=O)Oc3cccc(C)c3)c3ccccc3c2=O)cc1 -19%
COc1cccc(NC(=O)CSC2=Nc3ccccc3C3=NC(CCC(=O)NCCc4ccccc4)C(=O)N23)c1 (stereo unspecified) -18.3%
Cc1cccc(NC(=O)c2ccc3nc(C(C)C)oc3c2)c1C -17.9%
CCCN(CCC)C(=O)Cn1c(=O)n(-c2ccc(CC)cc2)c(=O)c2ccc(C(=O)NCCc3ccccc3)cc21 -17.2%
CCOC(=O)c1ccc(Nc2nc3ccc(C(=O)c4ccccc4)cc3n3c(C)nnc23)cc1 -6.11%
O=c1c2ccccc2n(Cc2ccccc2Cl)c(=O)n1CCc1ccccc1 -0.145%
Nc1nc2c(ncn2CCC(CO)CO)c(=O)[nH]1 -12.1%
CC(C)(C)OC(=O)N1CCC(c2c(C(=O)NC3CCN(Cc4ccccc4)CC3)cnn2-c2ccc(F)cc2F)CC1 -8.97%
CCCOc1ccc(C(=O)OCCN(CC)CC)cc1N -14.7%
COc1ccc(CCNC(=O)c2ccc3c(c2)CCN3S(=O)(=O)c2ccc(C)cc2)cc1 -2.52%
COc1ccc(-c2cc(C(=O)NCCc3ccccc3)c3c(-c4ccccc4)[nH]nc3n2)cc1OC -4.44%
Cc1ccc(NC(=O)C2CCCN(S(=O)(=O)c3ccc4c(c3)oc(=O)n4C)C2)cc1Cl (stereo unspecified) -7.36%
CCOc1ccc(NC(=O)C(=O)c2cc(C)n(-c3cc(C)cc(C)c3)c2C)cc1 -12.3%
COc1cc(Cl)c(NC(=O)CCS(=O)(=O)c2ccc3c(c2)NC(=O)CO3)c(OC)c1 0.982%
CCCCCOc1ccc(Cn2c(=O)oc3ccccc32)cc1 -15.6%
CCOc1ccc(S(=O)(=O)Nc2cccc(-c3ccc(OCC)nn3)c2)cc1 -15.2%
Cc1ccc(/C=C/c2onc(C)c2S(=O)(=O)N2CCC(C(=O)Nc3cc(C)ccc3C)CC2)cc1 -3.15%
COc1ccccc1CCNC(=O)C(=O)NCC(c1cccs1)S(=O)(=O)c1cccs1 (stereo unspecified) -3.02%
O=C(Nc1ccc(S(=O)(=O)N2CCCCC2c2cccnc2)cc1)c1ccc(Br)cc1 (stereo unspecified) -13.9%
Cc1cccc(NC(=O)COC(=O)CCCC2=NS(=O)(=O)c3ccccc3N2)c1 -11.2%
O=C(Nc1ccc(F)cc1C(F)(F)F)C1CCN(c2ncccn2)CC1 -7.07%
COc1ccc(S(=O)(=O)c2cn(C)c3ccc(C)cc3c2=O)cc1 15.1%
Cc1cc(C)c2oc(C(=O)Nc3ccc(S(=O)(=O)N4CCCCCC4)cc3)cc(=O)c2c1 0.235%
Cc1cccc(NC(=O)c2c(C)cc(C)nc2SCC(=O)c2ccccc2)c1 -18.9%
CC(C)c1ccc(NC(=O)c2ccc(F)c(S(=O)(=O)N3CCc4ccccc43)c2)cc1 -4.63%
COc1ccccc1NC(=O)c1sc2nc(C)c(C(=O)Nc3ccc(C)cc3C)c(-c3ccco3)c2c1N -24.3%
CCC(C)NC(=O)CSc1nc2n[nH]c(C)c2c(=N)n1-c1cc(Cl)ccc1C (stereo unspecified) -3.7%
O=C(C1CCCN(S(=O)(=O)c2cccc3nsnc23)C1)N1CCN(c2ccccc2F)CC1 (stereo unspecified) -8.07%
CCOc1ccc(OCC)c(Nc2ccc3cc(S(=O)(=O)N4CCCC4)ccc3n2)c1 -0.539%
CCC1CN(C(=O)N2CCC(C(=O)NCc3cccc(OC)c3OC)CC2)c2cc(C)ccc2O1 (stereo unspecified) 1.05%
CCC1=Nc2cc(C(=O)NC3CCC(C)CC3)ccc2Sc2ccc(C)cc21 (stereo unspecified) -13.2%
Cc1ccccc1NC(=O)CSc1nc2ccc(NC(=O)c3cccs3)cc2s1 -35.3%
CCc1ccc(NC(=O)CCn2c(=O)c3cccn3c3ccccc32)cc1 -0.564%
COc1ccc(NC(=O)CSc2ccc3nc(-c4ccccc4)cn3n2)c(OC)c1 -21.5%
Cc1ccc(NC(=O)c2ccc3[nH]c(C)cc(=O)c3c2)cc1 -8.73%
CSc1cccc(NC(=O)c2cccc(N3CCCS3(=O)=O)c2)c1 -8.55%
COc1cccc(-c2noc(C3CC(=O)N(c4ccc(F)cc4)C3)n2)c1OC (stereo unspecified) -19.6%
COc1ccccc1CNC(=O)c1cc2sccc2n1Cc1ccc(Cl)cc1 -5.24%
CCOCCCNC(=O)C1CCN(C(=O)c2cc3sccc3n2C)CC1 -19.6%
Cc1cc2c(cc1NC(=O)c1ccccc1C)n(C)c(=O)c(=O)n2C -6.26%
COc1ccc(CCNC(=O)CCCn2c(=O)c3cccn3c3ccccc32)cc1OC -10.6%
COc1cc(-c2nnc(SCCOc3ccc(Cl)cc3)o2)cc(OC)c1OC -5.26%
O=C(COc1ccccc1)OCc1cc(=O)n2nc(C3CC3)sc2n1 -5.68%
CCc1ccc2oc(C(=O)Nc3cccc(Cl)c3C)cc(=O)c2c1 -8.14%
COc1ccc(NC(=O)CCCN2C(=O)C(c3ccccc3)Oc3cccnc32)c(OC)c1 (stereo unspecified) -4%
CCc1ccc(CNC(=O)CCCN2C(=O)CCn3nc(-c4cccn4C)cc32)cc1 -20.7%
CC(C)CCN(Cc1ccco1)C(=O)c1cc2c(s1)-c1ccccc1OC2 -9.76%
Cc1ccc(C(=O)Nc2cc(-c3nc4ncccc4o3)ccc2C)c(C)c1 -18.9%
COCc1nn2cc(-c3ccc(C)cc3)nc2s1 -6%
Cc1ccc(C(=O)c2c(N)c(-c3nc(-c4ccc5c(c4)OCO5)cs3)c3ccccn23)cc1C -25%
Cc1cccc(N2CCN(C(=O)Cc3c(C(=O)O)c(C)cn3C)CC2)c1C -12.6%
COC(=O)c1ccc(Cn2cnc3nc4c(cc3c2=O)CCCC4)cc1 -9.36%
CC(=O)N1CCc2c(sc3c2c(=O)n(Cc2ccccc2)c(=O)n3Cc2ccc(C)cc2)C1 -3.66%
CC(=O)c1ccc(N2CCN(C(=O)C3CCN(S(=O)(=O)c4c(C)noc4/C=C/c4ccc(C)cc4)CC3)CC2)cc1 2.73%
CCOc1ccccc1NC(=O)Cn1ncc2c(=O)oc3ccc(C)cc3c21 -15.9%
COc1ccccc1NC(=O)CSC1=Nc2ccccc2C2=NC(CCC(=O)NCCc3ccccc3)C(=O)N12 (stereo unspecified) -5.85%
CCOC(=O)c1c(C)oc2ncnc(Nc3ccc(OC)cc3OC)c12 -6.4%
CCOc1ccccc1CNC(=O)C1CCN(S(=O)(=O)c2ccc3[nH]c(=O)ccc3c2)CC1 -2.6%
CN1C(=O)Cc2cc(S(=O)(=O)NCCc3ccc(Cl)cc3)ccc21 1.33%
COc1ccc(-c2noc(CSc3nnc(C)n3-c3ccc(C)cc3)n2)cc1OC -5.07%
